# The supplement of paper PMC12217912
# Some of the results follow. The full chains were built here from the parent and the listed change. Inactive controls read about 0.05.
# B1: TEV protease; numbered along this chain (parent)
# chain: MGESLFKGPRDYNPISSSICHLTNESDGHTTSLYGIGFGPFIITNKHLFRRNNGTLVVQSLHGVFKVKDTTTLQQHLVDGRDMIIIRMPKDFPPFPQKLKFREPQREERICLVTTNFQTKSMSSMVSDTSCTFPSGDGIFWKHWIQTKDGQCGSPLVSTRDGFIVGIHSASNFTNTNNYFTSVPKNFMELLTNQEAQQWVSGWRLNADSVLWGGHKVFMVKPEEPFQPVKEATQL
# Variants of: B1
# Experiment: raw area under fraction-flipped curve 0-4 h after induction (AUC4h, not background-subtracted), DNA-recorder readout of cleavage of the substrate (dimensionless); higher = more cleavage of the substrate by the protease variant
# Conditions: temperature: 34 °C; time window: 0-4 h after rhamnose induction
# 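Also: Bxb1 expression induced with 0.2% (w/v) L-rhamnose at OD600 near 0.5, cultures sampled hourly, flipped fraction per protease–substrate barcode pair counted by paired-end Illumina sequencing.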
Variant,area with substrate ENLYFCS,area with substrate ENLYFES,area with substrate ENLYFIS,area with substrate ENLYFLS,area with substrate ENLYFMS,area with substrate ENLYFNS,area with substrate ENLYFPS,area with substrate ENLYFRS,area with substrate ENLYFSS,area with substrate ENLYFVS,area with substrate ENLYFWS,area with substrate ENLYFYS,area with substrate ENLYFDS,area with substrate ENLYFHS,area with substrate ENLYFFS,area with substrate ENLYFKS,area with substrate ENLYFTS,area with substrate ENLYFGS
MGESLFKGPRDYNPISSSICHLTNESDGHTTSLYGIGFGPFIITNKHLFRRNNGTLVVQSLHGVFKVKDTTTLQQHLVDGRDMIIIRMPKDFPPFPQKLKFREPQREERICLVTTNFQTKSMSSMVSDTSCTFPSGDGIFWKHWIQTKDGQCGSPLVSTRDGFIVGIHSASNFTNTNNYFTSVPKNFMELLTNQEAQQWVSGWRLNADSVLWGGHKVFMVKPEEPFQPVHEATQL [K230H],0.0548,0.0678,0.0544,0.0608,0.0377,0.0699,0.0674,0.0543,0.0209,0.0725,0.0392,0.0607,–,–,–,–,–,–
MGESLFKGPRDYNPISSSICHLTNESDGHTTSLYGIGFGPFIITNKHLFRRNNGTLVVQSLHGVFNVKDTTTLQQHLVDGRDMIIIRMPKDFPPFPQKLKFREPQREERICLVTTNFQTKSMSSMVSDTSCTFPSGDGIFWKHWIQTKDGQCGSPLVSTRDGFIVGIHSASNFTNTNNYFTSVPKNFMELLTNQEAQQWVSGWRLNADSVLWGGHKVFMVKPEEPFQPVKEATQL [K66N],–,0.062,0.0626,–,–,–,0.0553,–,–,–,0.0411,0.0609,0.0654,0.0704,–,–,–,–
MGESLFKGPRDYNPISSSACHLTNESDGHTTSLYGIGFGPFIITNKHLFRRNNGTLVVQSLHGVFKVKDTTTLQQHLVDGRDMIIIRMPKDFPPFPQKLKFREPQREERICLVTTNFQTKSMSSMVSDTSCTFPSGDGIFWKHWIQTKDGQCGSPLVSTRDGFIVGIHSASNFTNTNNYFTSVPKNFMELLTNQEAQQWVSGWRLNADSVLWGGHKVFMVKPEEPFQPVKEATQL [I19A],–,0.0584,0.0517,–,0.0629,0.0526,0.0566,–,–,0.0571,–,–,0.0558,–,0.0693,0.0554,0.0535,–
MGESLFKGPRDYNPISSSICHLTNESDGHTTSLYGIGFGPFIITNKHLFRRNNGTLVVQSLHGVFKKKDTTTLQQHLVDGRDMIIIRMPKDFPPFPQKLKFREPQREERICLVTTNFQTKSMSSMVSDTSCTFPSGDGIFWKHWIQTKDGQCGSPLVSTRDGFIVGIHSASNFTNTNNYFTSVPKNFMELLTNQEAQQWVSGWRLNADSVLWGGHKVFMVKPEEPFQPVKEATQL [V67K],–,0.0646,0.0467,0.0855,0.0615,0.0293,0.0608,0.0357,–,0.0714,0.0596,–,0.0498,0.0468,–,0.0634,0.0849,–
MGESLFKGPRDYNPISSSICHLTNESDGHTTSLYGIGFGPFIITNKHLFRRNNGTLVVQSLHGVDKVKDTTTLQQHLVDGRDMIIIRMPKDFPPFPQKLKFREPQREERICLVTTNFQTKSMSSMVSDTSCTFPSGDGIFWKHWIQTKDGQCGSPLVSTRDGFIVGIHSASNFTNTNNYFTSVPKNFMELLTNQEAQQWVSGWRLNADSVLWGGHKVFMVKPEEPFQPVKEATQL [F65D],–,0.0603,0.0566,–,0.076,–,0.0589,–,–,–,0.0289,–,0.0541,0.0574,0.0518,–,0.0492,–
MGESLFKGPRDYNPISSSICHLTNESDGHTTSLAGIGFGPFIITNKHLFRRNNGTLVVQSLHGVFKVKDTTTLQQHLVDGRDMIIIRMPKDFPPFPQKLKFREPQREERICLVTTNFQTKSMSSMVSDTSCTFPSGDGIFWKHWIQTKDGQCGSPLVSTRDGFIVGIHSASNFTNTNNYFTSVPKNFMELLTNQEAQQWVSGWRLNADSVLWGGHKVFMVKPEEPFQPVKEATQL [Y34A],–,–,0.054,–,0.0689,–,0.0564,–,–,0.0549,0.0621,–,0.0544,–,0.0502,–,–,–
MGESLFKGPRDYNPISSSICHLTNESDGHTTSLYGIGFGPFIITNKHLFRRNNGTLVVQSLHGVFKVKDTTTLQQHLVDGRDMIIIRMPKDFPPFPQKLKFREPQREERICLVTTNFQTKSMSSMVSDTSCTFPSGDGIFWKHWIQTKDGQCGSPLVSTRDGFIVGIHSASNFTNTNNYFTSVPKNFMELLTNQEAQQWVSGWRLNADSVLWGGHKVFMVKPEEPFCPVKEATQL [Q227C],0.0573,0.0721,0.0592,0.0579,0.0697,0.0604,0.0587,0.0596,–,0.0523,0.0966,–,–,–,0.065,0.0558,0.0571,–
MGESLFKGPRDYNPISSSICHLTNESDGHTTSLYGIGFGPFIITNKHLFRPNNGTLVVQSLHGVFKVKDTTTLQQHLVDGRDMIIIRMPKDFPPFPQKLKFREPQREERICLVTTNFQTKSMSSMVSDTSCTFPSGDGIFWKHWIQTKDGQCGSPLVSTRDGFIVGIHSASNFTNTNNYFTSVPKNFMELLTNQEAQQWVSGWRLNADSVLWGGHKVFMVKPEEPFQPVKEATQL [R51P],–,0.0663,0.0511,0.0673,0.0608,0.0657,0.0589,0.0644,–,–,–,–,0.0548,0.055,0.0696,–,0.0592,–
MGESLFKGPRDYNPISSSICHLTNESDGHTTSLYGIGFGPFIITNKHLFRRNNGTLVVQSLHGVFKVKDTTTLQQHLVDGRDMIIIRMPKDFPPFPQKLKFREPQREERICLVTTNFQTKSMSSMVSDTSCTFPSGDGIFWKHWIQTKDGQCGSPLVSTRDGFIVGIHSASNFTNTNNYFTSVPKNFMELLTNQEAQQWVSGWRLNADSVLWGGHKVFMVKPEEPFQPVKEATAL [Q234A],0.0583,–,0.0641,–,0.0801,–,0.0659,–,–,0.0314,–,0.0633,0.0378,–,0.0669,–,0.0678,–
MGESLFKGPRDYNPISSSICHLTNESDGHTTSLYGIGFGPFIITNKHLFRRNNGTLVVQSLHGVFKVKDTTTLQQHLVDGRDMIIIRMPKDFPPFPQKLKFREPQREERICLVTTNFQTKSMSSMVSDTSCTFPSGDGIFWKHWIQTKDGQCGSPLVSTRDGFIVGIHSASNFTNTNNYFTSVPKNFMELLTNQEAQQWVSGWRLNADSVLWGPHKVFMVKPEEPFQPVKEATQL [G214P],0.0584,0.0401,0.0532,–,0.0457,0.0616,–,–,–,0.0265,–,–,0.0435,0.0704,0.0542,–,–,0.0485
